# According to PMC4336329 (PLoS ONE, 2015):
# Hit rate of the full screen: of about 310,000 compounds, about 2,200 (0.71%) showed an effect of 50% or more. Effects have a minus sign here. Some of the results follow.
# Molecular target: human ether-à-go-go-related gene (hERG) potassium channel (human, UniProt Q12809)
# Assay: primary screen, population patch clamp on CHO cells stably expressing hERG
# Chain of human ether-à-go-go-related gene (hERG) potassium channel (Q12809 whole entry, looked up): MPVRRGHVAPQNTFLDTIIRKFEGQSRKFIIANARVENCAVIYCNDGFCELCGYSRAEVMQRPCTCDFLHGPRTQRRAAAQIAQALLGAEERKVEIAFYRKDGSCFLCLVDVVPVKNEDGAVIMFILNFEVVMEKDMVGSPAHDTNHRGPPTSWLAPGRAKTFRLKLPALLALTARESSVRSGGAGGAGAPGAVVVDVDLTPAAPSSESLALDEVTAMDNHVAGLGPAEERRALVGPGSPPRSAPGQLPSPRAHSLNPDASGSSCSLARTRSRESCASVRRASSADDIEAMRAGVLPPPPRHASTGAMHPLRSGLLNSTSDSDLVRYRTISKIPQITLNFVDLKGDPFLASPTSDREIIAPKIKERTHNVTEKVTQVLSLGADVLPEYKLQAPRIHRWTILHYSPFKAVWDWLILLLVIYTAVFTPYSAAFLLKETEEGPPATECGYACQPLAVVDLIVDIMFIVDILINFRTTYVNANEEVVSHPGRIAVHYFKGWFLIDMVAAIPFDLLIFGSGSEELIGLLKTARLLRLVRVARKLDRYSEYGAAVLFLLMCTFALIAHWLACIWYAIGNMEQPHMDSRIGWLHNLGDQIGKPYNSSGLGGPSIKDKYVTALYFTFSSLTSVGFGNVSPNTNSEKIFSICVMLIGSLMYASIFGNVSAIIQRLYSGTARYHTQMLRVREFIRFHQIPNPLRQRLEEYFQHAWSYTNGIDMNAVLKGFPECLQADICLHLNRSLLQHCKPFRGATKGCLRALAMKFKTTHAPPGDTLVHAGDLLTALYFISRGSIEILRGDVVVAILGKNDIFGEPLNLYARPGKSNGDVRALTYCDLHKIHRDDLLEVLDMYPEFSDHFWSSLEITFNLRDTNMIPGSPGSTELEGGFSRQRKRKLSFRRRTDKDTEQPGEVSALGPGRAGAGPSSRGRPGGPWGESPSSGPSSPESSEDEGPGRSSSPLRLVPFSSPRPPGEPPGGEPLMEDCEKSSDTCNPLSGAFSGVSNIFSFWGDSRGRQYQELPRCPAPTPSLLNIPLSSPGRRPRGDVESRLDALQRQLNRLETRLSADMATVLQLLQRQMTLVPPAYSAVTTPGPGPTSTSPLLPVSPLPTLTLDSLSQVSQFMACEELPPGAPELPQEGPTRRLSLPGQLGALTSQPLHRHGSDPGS
row,SMILES,"hERG current change (%, negative = inhibition) at 1uM [%]"
1,CCOC(=O)CC(=O)CSCC(=O)Nc1ccc(C)cc1,-6.25
2,CP(C)(=O)CCP(=O)(c1ccccc1)c1ccccc1,16.9
3,CCOCCCNS(=O)(=O)c1ccc(NC(=O)CN2C(=O)c3ccccc3C2=O)cc1,15.7
4,O=C(Nc1cc(-c2ccccc2)sc1C(=O)O)c1cccc(F)c1,15.2
5,CCCCSc1cc(C)nc(N)n1,2.62
6,CCN(CC)C(=O)c1cc2cc([N+](=O)[O-])ccc2s1,-7.17
7,CCOc1ccc(C(C)=O)cc1COc1ccc(-c2nnco2)cc1,17
8,COc1ccc2c(c1OC)C(=O)N1c3ccccc3N=C(c3ccc([N+](=O)[O-])cc3)CC21 (centres unmarked),-10.7
9,O=C(NCCn1cc(SCc2ccccc2)c2ccccc21)c1c(F)cccc1F,4.88
10,Cc1ccccc1NC(=O)CSc1n[nH]c(-c2ccccn2)n1,-3.55
11,Cc1cccc(C(=O)N/C(=C\c2ccc(C)o2)C(=O)O)c1,12.8
12,CSc1cccc(NC(=O)NNC(=O)C2CCN(S(=O)(=O)N(C)C)CC2)c1,16
13,Nc1nc(SCC(=O)NCc2ccccc2)[nH]c(=O)c1NC(=O)c1ccccc1F,16.6
14,Cn1c(COc2ccc(F)cc2)nnc1SCC(=O)NC1CC1,-3.08
15,COc1ccc(S(=O)(=O)N2CCCCC2)cc1NC(=O)CNc1ccccc1C(C)=O,-2.43
16,O=C(CCN1C(=O)c2ccccc2S1(=O)=O)Nc1ccccc1,12.7
17,COc1ccc(CCNC(=O)CCCOc2ccc(C)cc2)cc1OC,2.82
18,Cc1cc(Cl)c2ccc3ccccc3c2n1,16.1
19,C=CCNC(=O)NC(=O)Cn1c(=O)c2c(ncn2CC)n(Cc2ccccc2)c1=O,-0.954
20,Cc1nnc2ccc(-c3cccc(NC(=O)c4ccc(Cl)nc4)c3)nn12,-1.98
21,Cc1ccc(C)c(S(=O)(=O)N2CCN(CC(=O)Nc3sccc3C#N)CC2)c1,-17.6
22,C/C=C/C=C(/NC(=O)c1ccccc1)C(=O)Nc1ccccc1,12.4
23,Cc1ccc(CC(=O)Nc2cccc(C)n2)cc1,8.71

row,SMILES,"hERG current change (%, negative = inhibition) at 1uM [%]"
1,Cn1c(CNc2cccc(C(F)(F)F)c2)n[nH]c1=S,10.8
2,CC(C)(C)n1nnnc1C(c1cccs1)N(Cc1ccccc1)Cc1cccnc1 (centres unmarked),4.59
3,O=C(CN1C(=O)COc2ccccc21)NC1CCCC1,13.6
4,CCOC(=O)C1C(=O)C=C(c2cccs2)CC1c1ccccc1C (centres unmarked),10.6
5,COc1ccc(CNC(=O)C2CCCN(S(=O)(=O)c3ccc4c(c3)C(C)(C)C(=O)N4C)C2)cc1 (centres unmarked),16.5
6,COc1cc(OC)c(N2CC34C=CC(O3)C(C(=O)O)C4C2=O)cc1Cl (centres unmarked),11.7
7,CCCC(c1nnnn1CS(=O)(=O)c1ccc(C)cc1)N1CCC(C(N)=O)CC1 (centres unmarked),7.13
8,CC1CCN(CCOc2cc(Cl)ccc2Cl)CC1,-5.51
9,O=C(Nc1ccc(Oc2ccccc2)cc1)C1CCCN(c2ncccn2)C1 (centres unmarked),6.08
10,COc1ccc(CCNC(=O)C2CC3Cn4c(nc5ccccc54)C3N2Cc2ccccc2)cc1 (centres unmarked),-1.43
11,N#C/C(=C\c1ccc[nH]1)Sc1nc2ccccc2s1,10.1
12,Cc1ccc(NC(=O)CC2SC(=O)N(c3ccccc3)C2=O)cc1 (centres unmarked),9.37
13,Cc1ccccc1C(=O)NC(=S)NC1CCSC1=O (centres unmarked),7.45
14,O=C(Nc1cccc(Cl)c1)Nc1sccc1-c1nc2ccccc2s1,19.6
15,CCn1c(CCNC(=O)c2ccc(Cl)cc2)n[nH]c1=S,4.7
16,O=C(Nc1ccc2c3c(cccc13)CC2)c1ccc(Br)o1,2.94
17,Cc1ccc2nsnc2c1S(=O)(=O)NCc1ccncc1,16.5
18,Cc1c(C(=O)NC2CCCCC2)oc2ccc(F)cc12,11.1
19,CCCC(=O)C1=C(O)C(C(=O)OC)C(C)(C)CC1=NC (centres unmarked),10.8
20,O=C(C1=C(O)C(=O)N(CC2CCCO2)C1c1ccc(Cl)cc1Cl)c1ccco1 (centres unmarked),15.8
21,COCC1CCN(C(=O)C2CCC(=O)N(C3CCCC3)C2)CC1 (centres unmarked),16.1
22,Cc1[nH]c(=O)[nH]c(=O)c1S(=O)(=O)Nc1cccc(C(F)(F)F)c1,15.2
23,Cc1ccc(/C(=N/Nc2ncnc3ccccc23)C(=O)O)cc1,15.2

row,SMILES,"hERG current change (%, negative = inhibition) at 1uM [%]"
1,NC(=O)c1ccccc1NC(=O)c1ccoc1,10.2
2,Cn1c(SCc2cc(=O)[nH]c(C(C)(C)C)n2)nnc1C(F)(F)F,12.5
3,CCCn1c(N)c(C(c2ccc(C(=O)OC)cc2)N2CCN(c3ccccc3)CC2)c(=O)[nH]c1=O (centres unmarked),7.89
4,COc1cccc(NC(=O)C2CCN(S(=O)(=O)c3ccc4c(c3)N(C(C)=O)CCO4)CC2)c1,21.6
5,CCC(c1nnnn1Cc1ccccc1)N1CCN(c2ccc(OC)cc2)CC1 (centres unmarked),1.56
6,O=C(N/N=C\c1ccc(COc2ccc([N+](=O)[O-])cc2)o1)c1cccc(Cl)c1,7.21
7,O=C1c2ccccc2C(Nc2cccnc2)N1Cc1ccc2c(c1)OCO2 (centres unmarked),8.45
8,CCc1nnc(NC(=O)C2Cc3ccccc3CN2S(=O)(=O)CC)s1 (centres unmarked),9.74
9,CN(CCc1ccccn1)C(=O)CCC1CCCN(C(=O)NC2CCCCC2)C1 (centres unmarked),16.5
10,COc1ccc(NC(=O)c2cnn(-c3ccccc3)c2C)cc1,4.57
11,O=C(Nc1cc(=O)[nH]c2ncnn12)c1ccccc1F,13
12,Cc1oc(-c2cccc(Cl)c2)nc1CS(=O)(=O)CC(=O)NCc1ccco1,-3.83
13,C(=N\N1CCN(Cc2ccccc2)CC1)/c1cccnc1,5.72
14,Cc1ccc(Cl)cc1NC(=O)CSC(N)=O,5.48
15,O=C(O)c1ccccc1C(=O)c1ccc(-c2ccccc2)cc1,14.6
16,Cc1[nH]nc(SCC(=O)NCc2ccccc2)c1[N+](=O)[O-],2.83
17,COc1ccc(NC(=O)c2cccnc2Cl)c(S(=O)(=O)N2CCOCC2)c1,2.79
18,O=C(c1n[nH]c(=O)c2ccccc12)N1CCN(c2ccccc2Cl)CC1,0.0913
19,COc1ccc(CC(NC(C)=O)C(=O)NC2CCN(c3c4c(nc5ncnn35)CCC4)CC2)cc1OC (centres unmarked),4.65
20,C[C@H]1CCC[C@]2(O[C@H](CCO)C[C@@H](O)[C@@H]2O)O1,7.8
21,O=c1oc(-c2ccccc2[N+](=O)[O-])nc2ccccc12,-6.36
22,COc1ccc(N(CC(=O)NCC2CCCO2)S(=O)(=O)c2ccc(C)cc2)cc1OC (centres unmarked),-12.2
23,Cc1ccc(NC(=O)CCn2c(=O)c3cccn3c3ccccc32)c(C)c1,5.59

row,SMILES,"hERG current change (%, negative = inhibition) at 1uM [%]"
1,COc1ccc(NC(=O)CC2(Cc3ccccc3)CCOC(C)(C)C2)cc1 (centres unmarked),7.82
2,CN1CCN(c2ccc(NC(=O)c3ccc(-c4ccccc4F)o3)cc2)CC1,-6.66
3,O=C(Oc1ccc2c3c(c(=O)oc2c1)CCC3)c1ccco1,1.61
4,Cc1cc(C)cc(C(=O)NCCC(=O)NCc2cc(=O)n(C)c(=O)n2C)c1,12
5,CCOC(=O)/C(CCC[N+](C)(CC)CC)=N\O.[I-],16.7
6,N=c1c(S(=O)(=O)c2ccc(Br)cc2)cc2c(=O)n3ccccc3nc2n1C1CCCCC1,21.1
7,COc1ccc(C(=O)N/N=C\C(C)=C\c2ccccc2)cc1OC,6.2
8,COc1ccc(Cl)cc1NC(=S)N(Cc1ccc(C(=O)O)cc1)Cc1ccc(OC)c(OC)c1,9.09
9,CC(C)Cn1c(N)c(C(=O)COC(=O)c2cc(-c3ccccc3)nc3ccccc23)c(=O)n(C)c1=O,2.4
10,CCCn1c(=O)c(C(=O)NCc2ccc(OC)c(OC)c2)c(O)c2ccccc21,12
11,Cc1cc([N+](=O)[O-])nn1CC(=O)Nc1nc2ccccc2s1,-13.7
12,Cc1ccccc1-n1c(SCc2c(C)noc2C)nnc1-c1cccnc1,14.8
13,COc1cccc(CN(C)C(=O)CSCC(=O)Nc2cccc(C)c2)c1OC,5.68
14,CCOC(=O)C(CCCOc1ccccc1)C(=O)OCC,2.16
15,O=C(c1ccco1)N1CCC(c2nc3c(nnn3Cc3c(Cl)cccc3Cl)c(=O)[nH]2)CC1,6.48
16,Nc1nn(-c2ccccc2)c2ccc([N+](=O)[O-])cc12,-9.55
17,O=C(C1CCCN(S(=O)(=O)c2ccc(F)cc2)C1)N1CCCC1 (centres unmarked),9.99
18,O=C(CN1CCOCC1)n1c2ccccc2c2ccccc21,-1.47
19,COc1ccc(N2CCN(C(=O)Cc3ccc(Br)cc3)CC2)cc1,4.41
20,CCOC(=O)C1CCN(C(=O)Nc2ccc(C)c(Cl)c2)CC1,6.49
